Test results published in PubChem BioAssay AID1963980 (Molecular Pharmacology Branch, DTP, NCI, 2024).
Not every entry of the source has a single result; some have several. This is not the full list of results. There may be further records. Values given together are repeated measurements across runs, samples, wells, individuals or studies.

System: 475296-252-R-J1-PDC spheroid viability
Assay: Anticancer human tumor 475296-252-R-J1-PDC patient-derived rectal carcinoma cell line growth inhibition [PI3K]
Conditions: stronger effect = lower value, spheroids with HUVEC and MSC
Source text: Combinatorial screen of targeted agents with the PI3K inhibitors inavolisib, alpelisib, duvelisib, and copanlisib in multi-cell type tumor spheroids
A high-throughput screen of multi-cell type tumor spheroids was designed to identify active combinations of targeted small molecules and PI3K pathway inhibitors. Complex spheroids include a stromal component modeled by human endothelial cells (HUVEC) and fibroblasts modeled by human mesenchymal stem cells (MSCs). The concentration ranges selected for each drug and investigational agent were based upon clinically achievable concentrations if the clinical Cmax of the agent was known.
Compounds. The drugs and investigational agents: inavolisib (NSC800729), alpelisib (NSC765974), duvelisib (NSC772469), copanlisib (NSC816437), ipatasertib (NSC767898), afuresertib (NSC778305), talazoparib (NSC767125), sapanisertib (NSC764658), selumetinib (NSC741078), tovorafenib (DAY101, NSC766906), vemurafenib (NSC761431), ravoxertinib (NSC781343), sotorasib (NSC818433), MRTX1133 (NSC 836407), abemaciclib (NSC 768073), palbociclib (NSC758247), venetoclax (NSC 766270), SY5609 (NSC837396), enzalutamide (NSC755605), and darolutamide (NSC825331), were obtained from the National Cancer Institute (NCI) Developmental Therapeutics Program Chemical Repository. The FDA-approved anticancer drug set is available from the NCI Developmental Therapeutics Program. […] The stock solutions were prepared in dimethyl sulfoxide (DMSO, Sigma-Aldrich, St. Louis, MO, cat. D2650) at 800-fold the tested concentration and stored at -70 degrees C prior to their use. All drugs and investigational agents were tested over a range starting from a high concentration at or near the clinical Cmax and decreasing in half-log increments. If the clinical Cmax for an agent had not been determined, the highest concentration tested was 10 microM.
Cell Culture. All cells were maintained in an incubator at 37 degrees C and 5% CO2 with 95% humidity. The PDC lines were cultured according to standard operating procedures established by the NCI PDMR (https://pdmr.cancer.gov/sops/default.htm). All PDCs were thawed and cultured in Matrigel-coated flasks prepared with a working solution of 1X Ham's F-12 nutrient mix, without supplementation (Invitrogen, Waltham, MA, cat. 11765054), 100 U/mL penicillin-streptomycin (Invitrogen, cat. 15140122), and 2.5% Matrigel (Corning Inc., Corning, NY, cat. 354248) for the first three passages. The 354836-022-R-J1-PDC, 475296-252-R-J1-PDC, and 997726-040-R-J2-PDC lines were cultured in 6A media, which includes advanced DMEM/F-12 (Thermo Fisher Scientific, cat. 12634028), 10 mM HEPES (Thermo Fisher Scientific, cat. 15630080), 1X GlutaMAX supplement (Thermo Fisher Scientific, cat. 35050061), 0.1 mg/mL primocin (InvivoGen, San Diego, CA, cat. ant-pm-2), 10% defined fetal bovine serum, heat inactivated (HyClone Laboratories Inc., Logan, UT, cat. SH30070.03HI), 50% L-WRN conditioned media (ATCC, cat. CRL-3276), 1.25 mM N-Acetyl-L-cysteine (Sigma-Aldrich, cat. A9165), 10 mM nicotinamide (Sigma-Aldrich, cat. N0636), 1X B-27 supplement (Thermo Fisher Scientific, cat. 17504044), 1X N-2 supplement (Thermo Fisher Scientific, cat. 17502048), and 10 microM Y-27632 dihydrochloride (Tocris Bioscience, Bristol, United Kingdom, cat. 1254). The 624824-186-R-J2-PDC line was cultured in 6C/Colon 1B media, which includes all 6A media components plus 50 ng/mL human EGF recombinant protein (Thermo Fisher Scientific, cat. PHG0311). […]
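Further: spheroids exposed to agents for seven days before readout.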

For `CC1(C)CCC(CN2CCN(c3ccc(C(=O)NS(=O)(=O)c4ccc(NCC5CCOCC5)c([N+](=O)[O-])c4)c(Oc4cnc5[nH]ccc5c4)c3)CC2)=C(c2ccc(Cl)cc2)C1`, the viability, T/C (compound alone 10 µM) was 66.5, 60, 100, 57.2%.

With `Cn1cnc2c(F)c(Nc3ccc(Br)cc3Cl)c(C(=O)NOCCO)cc21` the viability, T/C (compound alone 0.949 µM) was 86.4, 84.8, 67, 58.9%.

`Cn1nccc1Nc1nccc(-c2ccn(C(CO)c3ccc(Cl)c(F)c3)c(=O)c2)n1` (centres undefined) was tested, and the viability, T/C (compound alone 3.16 µM) was 115, 98.2, 87.7, 101%.

With `C=CC(=O)N1CCN(c2nc(=O)n(-c3c(C)ccnc3C(C)C)c3nc(-c4c(O)cccc4F)c(F)cc23)C(C)C1` (centres undefined) the viability, T/C (compound alone 0.0316 µM) was 101, 98.6, 76.6, 103%.

For `CC1(C)CCC(Nc2ncc(C(F)(F)F)c(-c3c[nH]c4c(P(C)(C)=O)c(C#N)ccc34)n2)CN1` (centres undefined), the viability, T/C (compound alone 10 µM) was 88.7, 80.9, 52.3, 56.9%.

In the case of `C#Cc1c(F)ccc2cc(O)cc(-c3ncc4c(N5CC6CCC(C5)N6)nc(OCC56CCCN5CC(F)C6)nc4c3F)c12` (centres undefined), the viability, T/C (compound alone 3.16 µM) is reported as 86.8, 72.3, 62.4, 59.4%.

In the case of `CC(C)n1nc(-c2ccc3oc(N)nc3c2)c2c(N)ncnc21`, the viability, T/C (compound alone 0.01 µM) is reported as 76.4, 75.9, 88, 107% and the viability, T/C (compound alone 0.0316 µM) is reported as 75.6, 61.6, 71.3, 88.5%.

In the case of `CNC(=O)c1ccc(N2C(=S)N(c3ccc(C#N)c(C(F)(F)F)c3)C(=O)C2(C)C)cc1F`, the viability, T/C (compound alone 0.0316 µM) is reported as 105, 86.9, 107, 112%.
